Laboratory results taken from ChEMBL document CHEMBL4888484, “Replenishing the malaria drug discovery pipeline: Screening and hit evaluation of the MMV Hit Generation Library 1 (HGL1) against asexual blood stage Plasmodium falciparum ,using a nano luciferase reporter read-out” (2022).
Hit rate of the full screen: of about 150,000 compounds, about 540 (0.36%) showed an effect of 50% or more. The list shows a part of the results.

Test system: Plasmodium falciparum
Experiment: Primary screen in NF54 nanoGlo assay, in single point, at 2uM, 72h; a lower Z score goes with more inhibition
Assay type: functional, Erythrocyte
Details: timepoint 72 hour

SMILES | % Inhibition [%] | Z score
Cc1noc(Cn2nnnc2-c2ccncc2)n1 | -7 | 0.95
CCc1nnc(C(=O)NC2(c3ncccn3)CCC2)s1 | -8 | 1.12
CNc1ccc(Br)cc1F | 9 | -0.77
CNC(=O)Cc1noc(-c2cscc2C)n1 | -5 | 0.5
COCCS(=O)(=O)Nc1ccc2nscc2c1 | 3 | -0.39
CCCN(Cc1c(-c2ccccc2)noc1N1CCOCC1)C(=O)c1ccc(C)cc1 | 1 | -0.23
Cc1cc(NC(=O)c2cccc(F)c2)nn1-c1ccc(F)cc1F | -4 | 0.61
O=C(NCc1cccc(COC2CCOCC2)c1)c1cccnc1O | -13 | 2.65
Cc1cc(NC(=O)NCc2cccc(OC3CC3)c2F)c(N(C)C)nn1 | -4 | 0.58
COc1ccc2c(c1)CN(C(=O)CC(C)C)CC[C@H]1COC(=O)N21 | -6 | 0.98
CCNC(=O)N1CCc2nc(N3CCN(C)CC3)nc(Oc3ccccc3F)c2C1 | -4 | 0.56
O=C1C[C@H](c2nc(C3CC3)no2)CN1c1ccc2c(c1)CCC2 | 0 | -0.03
Cn1cc(S(N)(=O)=O)c2ccccc21 | -10 | 1.18
O=C(c1c[nH]nc1-c1c(F)cccc1F)N1CCC[C@@H]1CF | 17 | -2.01
O=C(c1nnc(-c2cc(S(=O)(=O)N3CCN(C4CCCCC4)CC3)c[nH]2)o1)N1CCCC1 | -12 | 1.33
CCn1nncc1C(=O)N1CCOCC2(CCCC2)C1 | -7 | 1.11
NC(=O)C1CCN(C(=O)c2cc(O)c(OCc3ccccc3)cn2)CC1 | -3 | 0.4
COCC(=O)N[C@H](C(=O)NCc1ccc(C)s1)C(C)C | -12 | 1.53
c1cn2cnnc2c(N2CCc3sccc3C2)n1 | -5 | 0.96
CC(=O)N[C@H]1[C@H](c2ccccc2)N(CCCc2ccccc2)CC[C@@]1(C)O | 36 | -4.09
CCC(=O)N1CCCN(c2ccc(=O)n(-c3ccc(C)cc3)n2)CC1 | 13 | -1.54
O=C(c1cc(-c2ccccc2)nc2ccccc12)N1CCN(c2ncccn2)CC1 | -6 | 0.8
Cc1n[nH]c(C)c1C(=O)NCc1nc(-c2cccn2C)no1 | -4 | 0.49
Cc1ccc2nc(-c3cccc(C)c3OS(=O)(=O)c3cccc(C(F)(F)F)c3)oc2c1 | -1 | 0.12
Cc1noc([C@@H]2CCCN2C(=O)c2ccc3nc(-c4ccccc4)cn3c2)n1 | -1 | 0.25
CC(C)CN(Cc1c(-c2ccccc2)noc1N1CCC(C)CC1)C(=O)C1CCCC1 | -1 | 0.11
CN1[C@@H](CCC(=O)NCc2ccc(F)cc2)CNC(=O)[C@@H]2[C@H]1CCN2Cc1nc2ccccc2n1C | 28 | -3.31

SMILES | % Inhibition [%] | Z score
O=C(CCC1CCCC1)Nc1ccc2c(c1)CCC(=O)N2 | -15 | 1.73
Cc1c(C(=O)N[C@@H](C)c2ccco2)cnn1-c1ncc2c(n1)-c1ccccc1CCC2 | 3 | -0.5
Cc1[nH]c2c(c1C(=O)NCc1ccc3nonc3c1)C(=O)CCC2 | -3 | 0.5
C[C@H]1C(=O)NCCCN1Cc1ccn(-c2ccc(Cl)cc2)n1 | 0 | 0.06
C[C@@H](CCc1ccc(F)cc1)C(=O)Nc1cc2n(n1)CCN(C)C2=O | -13 | 2.24
CCC[C@@H]1C[C@@H]1C(=O)N1CCC(n2cc(C3CCCCC3)nn2)CC1 | -1 | 0.22
CCCNC(=O)CCc1nnc(C(=O)Nc2ccc(F)cc2)s1 | -12 | 2.17
O=C(Nc1c(O)cccc1F)c1cccc(-n2cccn2)n1 | -8 | 1.53
O=C(C1CCC1)N1C[C@@H]2CN(Cc3cc(F)c(F)c(F)c3)C[C@]2(C(=O)O)C1 | -4 | 0.84
CCN1C(=O)C2(CCN(S(=O)(=O)c3ccccc3)CC2)C[C@H]1C(=O)NCCCOC | -10 | 1.26
Cc1c(C(=O)N2CCO[C@H](C(=O)O)C2)nnn1-c1ccc(-c2ccccc2)cc1 | 5 | -0.93
COc1ccc2c(c1)CN(C(=O)C1(c3ccccc3)CCOCC1)CC2 | -10 | 1.93
CCCCc1nc(CN2CCN(C(=O)CC(C)C)[C@H]3CS(=O)(=O)C[C@H]32)c[nH]1 | 2 | -0.26
O=C(CC(O)c1cccc(F)c1)NCC1CCOC1c1ccccc1 (stereo unspecified) | -1 | 0.11
O=C(OC(c1nc2ccccc2o1)C(F)(F)F)C1CC2CCC1C2 (stereo unspecified) | -6 | 0.67
CC[C@H]1CC[C@H](C(=O)N2CC[C@](C)(CO)C2)CC1 | -5 | 0.72
CN(C)C(=O)Cn1cc(NC(=O)C(=O)Nc2ccc(N(C)C)c(Cl)c2)cn1 | -14 | 2.51
CCCN1CCC[C@H](CNC2Cc3ccccc3C2)C1 | 4 | -0.79
CCN1CCC[C@@H]1CN1Cc2ccc(C(=O)N3CCOCC3)cc2C1=O | -5 | 0.92
COc1cccc(NC(=O)Cn2cnc(-c3noc(-c4cccnc4)n3)c2)c1 | 6 | -1.08
CC[C@](C)(NC(=O)CN1CCOc2ccc(Cl)cc21)c1nccs1 | -11 | 2.09
O=S(=O)(NCC#CCOc1cccc(C(F)(F)F)c1)c1cccnc1 | -26 | 3.39
O=C(Cn1c(C(=O)N2CCCC2)cccc1=O)Nc1ccc(F)cc1 | -11 | 1.03
C[C@@H](C(=O)N(C)CC1(CO)CCCC1)N1CCN(C)CC1 | -13 | 1.47
O=C(c1ccc(-c2cc[nH]n2)s1)N(Cc1ccccc1)CC1(CO)CC1 | 7 | -0.72
COc1ccc(NC(=O)COc2cc(C)cc(C)c2)cc1S(=O)(=O)N1CCCCC1 | 9 | -1.03
